Experimental data taken from publication PMC10726135.
The other results are listed elsewhere or left out. At the low end of the ranking, values are background and their order means little. The protein was read in a cell extract, so binding may be indirect.

The sequences below were run against T1, HNF4alpha8 (COS-7 nuclear extract) (UniProt P41235-5) (assay: protein-binding microarray). Conditions: COS-7 nuclear extract on double-stranded Agilent 4x180k PBM; binding buffer, salt, pH and temperature not given; high values mean tight binding; double strand, one strand shown; sequences stand for … in …GCCTAGGGAGATTAGAGTATCGGTCGA.
T1 sequence: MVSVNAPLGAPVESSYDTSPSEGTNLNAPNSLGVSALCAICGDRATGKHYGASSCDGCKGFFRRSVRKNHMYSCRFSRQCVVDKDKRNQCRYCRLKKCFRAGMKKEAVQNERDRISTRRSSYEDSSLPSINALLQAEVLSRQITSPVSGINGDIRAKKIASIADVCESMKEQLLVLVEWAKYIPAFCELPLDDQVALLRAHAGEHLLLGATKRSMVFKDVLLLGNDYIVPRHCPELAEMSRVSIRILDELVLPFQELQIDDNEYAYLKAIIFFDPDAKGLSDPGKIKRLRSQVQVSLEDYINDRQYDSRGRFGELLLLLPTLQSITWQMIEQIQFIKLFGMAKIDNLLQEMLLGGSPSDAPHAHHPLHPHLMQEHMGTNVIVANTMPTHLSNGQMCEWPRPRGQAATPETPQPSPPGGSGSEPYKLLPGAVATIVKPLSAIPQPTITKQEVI

| Sequence | binding signal (log2 normalized intensity) |
| --- | --- |
| AGGACAAAAGTAAATATGGTTTACCATATT | -1.16 |
| TGTTGAAAAGAGCATAAGGTTTCCATCAAG | -1.31 |
| TTCAGCAGCATCTAAACTCTACTCACTAGA | -1.37 |
| TTTGTAGGCAGCTAGGCAGGCTCAGAACTA | -1.32 |
| CTTTGACCCTGCTGTAGTGTGTAAGTATGC | 1.95 |
| TCCACCCTGAAAGAGAGGAGGCTGAAGACT | -1.3 |
| AATGAGGTCAATAGTCCAGATACAGATGGC | 3.88 |
| ATAGCTGCCTGTGTGTTCTGCTATTCATTA | 0.562 |
| CAGAGGAACAGAGGGGTCTGAGCACATCAC | -1.41 |
| GGGGACGGAAGTTGCAGTGAGCTAAGATTG | -1.2 |
| CTTCATTGTGCACCCACTTGGATAATTTCT | 0.583 |
| AAGCAGCTGTGATGAGGCCAGCAGGGTGCC | -1.17 |
| GAACCCCCAGGTCACCCACAACCTACCCTT | 4.85 |
| CTTTGGCCGTGCATGCTTGGACTCTGAAGG | 3.77 |
| CCCTGTTATTAGTCCAAGAGATTTCTACAG | 0.355 |
| GTCATAATTTGATCCAGTGTGCAAATGTGT | 2.05 |
| AAAAAGATGGTCTTACAACATAGTGATTTA | 0.209 |
| GGACTTTGGGCTGTGTTTTGCCCCTGCAGA | 4.12 |
| TCTGTTCATTGATAAAGGGTTACAAACTTC | 0.93 |
| GACTGGCATTCCCCTATGTCTAGGACTCTA | 1.25 |
| GAGGGCATGTTGAGTGGAATATGAGGTCAG | 2.24 |
| TTAGGAGGATGACAAAGAGCAAGTGACCCT | 4.46 |
| GAAACAGTCTGATTCTAGGGCCCATGCCCT | 0.766 |
| TCCAGGGCCGCCCAAGCGAATATGTCAGGC | -1.39 |
| TTTCTTCCCTAATGGACATCTCTAGGAACT | -1.33 |

| Sequence | binding signal (log2 normalized intensity) |
| --- | --- |
| TAGGAATCACACAACTTTCATTGAACTGCT | -1.22 |
| ATGCAGCCTTGGGCAAGTTACTTAAGCCAT | -1.44 |
| TTTCTGAGAAACTTCTTTGTGATGTGTGGA | 2 |
| TGCAAGCAAACCTGCCCTTTGCTCCAGAGG | 4.45 |
| GGTCAATGTCCACACCCCAGTTTCATCAAC | 2.8 |
| CCAGGTCGAAGTTTATGTTTACTGTGGATC | 2.18 |
| TCACTCAGTCCACATGGTGTCTTTTGTTGT | 2.06 |
| TTCAATGGTGCTTTTGATATTGTTGTAAAG | 1.77 |
| GTGGTCATGTAGGTGTCTCAGGAATGTCCT | 1.81 |
| GGATGGGGTCACGAGACGGTGTCCCTGGCC | 0.531 |
| GTGCACCCTTCCTCTGCAGCCGCCCTTTTG | 2.25 |
| TTTCATCTCTGTAAACTGGCCAGAAGGTCA | 3.39 |
| GGTTGTGAGGGAGGGCACAGGCAACAGAGG | -1.34 |
| CCCTTTGACCTCTGCTTCCTGCTACAGAGC | 2.76 |
| CACCTTCTTCCTAGGCAATCCCATGACCTT | 3.52 |
| TGGGACCATGAGTACCAGGTCAAAAGTTCA | 4.74 |
| GTCACCTCCACCCACCCGTGCATCAACATA | 3.46 |
| GCATGCTATTTCAGGAATGTGACCCCTTTC | 5.65 |
| GCCCAACAGCATTAAGCTGAGGCAGAGTTG | -1.26 |
| TCCTCCAACTGCCACGGTAAATATTATCAT | 0.355 |
| AAAGAGGGTGTAAGAGTGAACTCTGACCAT | 4.94 |
| TGAGAAAAGAACCATGAGAGGGTTAAAAAC | -1.11 |
| ACATTCTGAGCCAGCACTTCGACCTCACAT | 2.44 |
| AAGCAATGGCTACCAAGGAGTGGACTGTTC | 2.02 |
| GACAGGAGGTATGCCAGGAATGCTGAGGAG | -1.26 |

| Sequence | binding signal (log2 normalized intensity) |
| --- | --- |
| CTTCCACCCACTTTATCTTCTATAGGAATT | 0.738 |
| TATCCAATAAAACACTATCTTCTTTCAGTG | 0.405 |
| TTTATTTAGCCTCACTAAGATAGGGAAGCT | -1.37 |
| TCTGCAGGGTTAAATCTCGGTATAATTCCT | -1.05 |
| TTTGGAATTAAGGAGATTTGGCTTTGAATT | -1.08 |
| CCTCCTCTCTGAGCAGTCAAACTGGTTTCT | 0.708 |
| CCCCTCAGTTTTTCTCTTTTGACCTTTGGA | 9.54 |
| AAGTCCAGTCTTATCTGAGACTCAAGGCAA | -1.17 |
| AAACAAATTTAGCAAGACTGCAAAATAGAC | -1.22 |
| AGGGATGGGAACCGACCTTTGGTTCCTGAA | 5.61 |
| TTTCATCTTCTTAGCCTTTGAACCCCACAC | 5.48 |
| CTTCACATATTTTGAAAGAAAGAGACCTTT | 4.58 |
| GATAGCTCAGGGATTAACGACTCATGAAGA | -1.35 |
| TTCCAGGATGAAGGAAGAGGGAAGACCAAA | -1.23 |
| ACAAATGAGCAAACTAATGGAATGTGATAG | -0.665 |
| ACCGCTCACTGCTCCAGCCACTCATTCTTG | -1.35 |
| CAGGCCCCAGGGACTTTGGCCTTACTTGGC | 4.92 |
| CCTGAGGCTGTGGAGGGCAGTGGATGGGGG | -1.29 |
| AGCCAATATTTGCAAGGCTGTTGGCAGATT | -1.13 |
| CCTTTACCCTGACCTGTCAAGCAATGATCT | 1.39 |
| TGACACTCGAGGATCAGAGACACGATGTTC | -1.29 |
| TGTGATCTCTAGACTAAGGGCACAGGGTGA | 0.175 |
| CCACAACAGAACCTTGTTTTGTCTTCTGTT | 0.586 |
| GTTCCAGCTGCTTCAGGAGCCCCCTGGGGG | -1.33 |
| AAGGCGGAAGTACTGCCCTTAACTCCCGGC | -1.22 |

| Sequence | binding signal (log2 normalized intensity) |
| --- | --- |
| GCCAAAAGTAGGGAGGAGGGGAGGGGCCCA | -1.37 |
| GGGGAGGGCATGGACTTTGGAATTAAGGAG | 5.91 |
| GGCTCAGGACAGGTGAGCCCGGCAGAGAGT | -1.24 |
| TCAACCTTCATTCTCATCTTCTATGATAAG | 1.16 |
| CGACCTCCCCGTCACCCTCCCCGCCACCCC | 7.01 |
| CATAACTGACTGTGTCTGTTTACCCACTTG | 0.804 |
| CACAGTACTGTCTTTTTGCCACTAGGGGTC | 3.77 |
| GTGATTTATGAAGGGGGGTGGGGAGGCAGG | -1.35 |
| TGGTGGAGCAAAAAGGCCGTTCAAAGGCAG | -1.26 |
| AGAGACAGAGAGAGAGAGAGAATGACCCTT | 5.1 |
| GTTCATTTTACAATGCAAACCTAACAGGCT | -1.28 |
| AACTCTAGTGATCTTATCAGCAAGGGCATT | 1.09 |
| CCCTTGTCTTCCTCAAATTACAAAAGGAGT | 1.39 |
| CCACTAGCAACAGCTGCAGTGAAATTCTGG | -1.31 |
| CTTGGCTAACAAAGCTCAGGGCAAAGACTC | -1.38 |
| TCAGTTTCATTGCACTTTGCCCTCTCTTCA | 7.35 |
| AGTCAACATGTCATTGGCAGAAGGTGGAAC | 1.54 |
| GCCAACAAACTCAATCCTGGCCTCTGAGGT | -1.4 |
| GCTCCTTTGAGCACTGCTGACTGTTTGCTT | 1.02 |
| ACAATAGGAATTCAACCAATGTGGAGCTGC | -1.32 |
| CCAGGTGTGCAGAGAGCAAACGAACCGGCA | -1.25 |
| CTCCCTAGAGCAGCAGTAGGCTCTCGGGCC | -1.22 |
| TTTTTGAGATGGAATCTTGCCCTGTCGCCC | 3.19 |
| CAAGGGTTCAGGGCTCAGTTGACATGATAC | 1.55 |
| CCCCGGGAGCAGCATGGCCCTTTGCAGCCC | -0.469 |

| Sequence | binding signal (log2 normalized intensity) |
| --- | --- |
| GGGCAAGCCCACTCTCTGAGTCTGATAAGG | -1.35 |
| TAAATATGTTCCAAAGTTCAACCAGATGAT | 3.63 |
| AGGTAGAGAGCTGTCTGCTGAGGATGTGGC | 0.382 |
| GCTGTGATGTTTGCCCATGATCATATGGAC | 2.29 |
| GCAGGAGCCACCTGTCACTCAATGCAGCAG | -1.34 |
| CAATGCCCCAGAAAGCCAGCAGGGGCTGCT | -1.22 |
| CTGGGACCCACCCACCTATGTCCTTATCCT | 1.44 |
| GCTTTCTTCCAAGGCTGCAAGCAAACCTGC | -1.37 |
| TCATGAGCATGCTTCCCAAATGGAGTGCCC | 1.64 |
| CACCAGCATGGTGATGCTAGCTACTACATG | -1.39 |
| CAACTTCCCCAACCCTTGCACTGCTGGTTT | 1.55 |
| GAGTTTCTGCAGTTCTGGGCCAAAGGTCAT | 7.29 |
| CTGAAGTCAATGTCAGCTAGAGGCCCTGCA | -1.34 |
| ATGACCTCTTTTAGTAACTGACTTTAACTT | 1.03 |
| GGTAAGCCACTGAACTTTCACTGCCTATCT | -0.69 |
| TGTTCCTCCAGACACGGGGATAACACCTGC | -1.19 |
| CAGTGAGGATGTGTGCTCGAGGTGGACTTT | 7.48 |
| ACATTTATTGTGAGATTACGTAAGTGAAAG | 1.29 |
| TCCAAAGTTCAAACTCTGAAAGCACTAAGT | 2.09 |
| AGTGGCACTCTCTGGGTTAAACGTGCAGCA | 0.255 |
| CCTAGCACTTCCCGAGTGAGGCAATGCCTC | -1.25 |
| GCACAATCAGCAAACACAGATAGCATAATC | -1.29 |
| TTCCATGTTTGTCTTTGCATTGCTCAATTT | 1.35 |
| GCCATTGACGGTATGTGAATGCCTGGGCAT | 0.108 |
| GCTTCACAGCCCTCCAACTATGCTAAGAAT | -0.587 |

| Sequence | binding signal (log2 normalized intensity) |
| --- | --- |
| CCAGCGGGTCATTAATTCCCAGGAATTGGC | -1.13 |
| AAGTCTGAGATGAAGAGGCCAGGGGCACTC | -1.39 |
| AAACACACTTGCTCTAATCCTTTAAAAAAA | -1.4 |
| AGATAAATGGTGTAGAGGCCAGAGGTCGTG | 2.91 |
| AATGTGCCCTTTGACCTCTCTCTCCTAACT | 7.21 |
| GCCTTGGAAAACCCGGCGCGGACATAAAAT | -1.26 |
| TGCGTCCCCAGGTGAACTCAGTCCTTTCAG | 1.34 |
| TCATTTTCTTATCTCACACAGTACTTTGTA | 2.35 |
| GAGGCCTCATTGGCCAGTATCCGCCTTCAC | -1.26 |
| AGCTGAAGTTTGCAAACAGTAAAGAACAAA | -0.964 |
| TCCCACTTCAGCCTCCCGAGTAGTTGGGTC | 1.21 |
| TGGTTAGTTCCAAAGGACAAATCTCACTGA | 1.09 |
| ACAGCCTTGTTTACAACGCTGTTGTCTGTG | 0.502 |
| ATTCAACTTTGACTTCCATTGTGTTGCAGA | 1.02 |
| TAGGGGCCGCATTGATGTTAGAATACAAGT | 0.508 |
| CAGAGCTAATGTTCAAATCCAGACACTTTG | -0.461 |
| TTCTTCCAGTTGTGTGCACAAGAGGGTGGG | -0.441 |
| GTCAAAAGGTGTATGTGGACTTTCAACTGC | 6.13 |
| TTGTACACATTCCTTTGGATCATGTGTCTG | 1.95 |
| CGTAATACAAAGGCAGCCATTGACGGTATG | -0.923 |
